Reference: patent publication US5478810A, “Peptide amides, processes for the preparation thereof and agents containing these as fibrin/thrombin clotting inhibitors” (Behringwerke Aktiengesellschaft, priority 1990, dated 1995)
Part of at least one peptide drawing is inferred or uncertain, most often the ends. Residues, ends and D or L forms follow the SMILES beside them. No end group written: not given here.

Legend:
[1] = system: fibrin/thrombin clotting of plasma; assay: clotting time, Test mixture I: 100 μl of clot inhibitor, 25 μl of plasma, 25 μl of thrombin; type: biochemical
[2] = system: fibrin/thrombin clotting of plasma; assay: clotting time, Test mixture II: 50 μl of clot inhibitor, 100 μl of plasma, 50 μl of thrombin; type: biochemical
[3] = system: fibrin/thrombin clotting of plasma; assay: clotting time, Test mixture III: 20 μl of clot inhibitor with thrombin, 130 μl of plasma; type: biochemical
plasma clotting = details: relative to GPRP = 1; cited from earlier work

Compound | Clotting time ([1]; clot inhibitor 0.06 mg/ml) | Clotting time ([1]; clot inhibitor 0.125 mg/ml) | Clotting time ([1]; clot inhibitor 0.25 mg/ml) | Clotting time ([1]; clot inhibitor 0.5 mg/ml) | Clotting time ([1]; clot inhibitor 1 mg/ml) | Clotting time ([1]; clot inhibitor 2 mg/ml) | Clotting time ([2]; clot inhibitor 0.06 mg/ml) | Clotting time ([2]; clot inhibitor 0.125 mg/ml) | Clotting time ([2]; clot inhibitor 0.25 mg/ml) | Clotting time ([2]; clot inhibitor 0.5 mg/ml) | Clotting time ([2]; clot inhibitor 1 mg/ml) | Clotting time ([2]; clot inhibitor 2 mg/ml) | Clotting time ([3]; clot inhibitor 0.625 mg/ml) | Clotting time ([3]; clot inhibitor 1.25 mg/ml) | Clotting time ([3]; clot inhibitor 2.5 mg/ml) | Clotting time ([3]; clot inhibitor 5 mg/ml) | Clotting time ([3]; clot inhibitor 10 mg/ml) | relative activity (amount of plasma which is inhibited with a defined amount of inhibitor) (plasma clotting)
N=C(N)NCCC[C@H](NC(=O)[C@@H]1CCCN1C(=O)CN)C(=O)N1CCC[C@H]1C(N)=O [GPRP, Gly--Pro--Arg--Pro, reference compound] (H-GPRP-NH2) | 20.3 s | 20.3 s | 23.1 s | 48.8 s | 181.8 s | 494.3 s | 20.3 s | 20.3 s | 19.3 s | 19.3 s | 19.3 s | 31.7 s | 18.4 s | 18.4 s | 22.2 s | 86.7 s | 926.6 s | 1
GPRPP-NH2 [GPRPP, GPRPP-NH2, reference compound] |  | 28.8 s | 73.5 s | 228.3 s | 425.9 s | 699.5 s | 19.3 s | 19.3 s | 18.4 s | 21.2 s | 60.2 s | 239.7 s | 18.4 s | 20.3 s | 37.3 s | 97.2 s | 327.7 s | 4.56
